# The other results are listed elsewhere or left out.
# Key:
# Assay in all cases: glycan array binding signal (z-score within array); higher = stronger binding
# Conditions in all cases: glycan notation: IUPAC condensed, linker removed
# [1] = target: Neu5Ac(a2-6)Gal(b1-4)GlcNAc(b1-3)Gal(b1-4)GlcNAc(b1-3)Gal(b1-4)GlcNAc(b1-2)Man(a1-3)[Neu5Ac(a2-6)Gal(b1-4)GlcNAc(b1-3)Gal(b1-4)GlcNAc(b1-3)Gal(b1-4)GlcNAc(b1-2)Man(a1-6)]GalNAc
# In short: (§1)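 The Consortium for Functional Glycomics database supplied 3228 glycan arrays, of which those lacking an available protein sequence were dropped. The binding signal, a within-array Z-score, was averaged across arrays of the same protein sequence and across linkers. Negative scores can be read as non-binding.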
# [2] = target: Neu5Ac(a2-6)Gal(b1-4)GlcNAc(b1-3)Gal(b1-4)GlcNAc(b1-3)GalNAc
# In short: as §1
# [3] = target: Neu5Ac(a2-6)Gal(b1-4)GlcNAc(b1-3)Gal(b1-4)GlcNAc(b1-3)[Neu5Ac(a2-6)Gal(b1-4)GlcNAc(b1-3)Gal(b1-4)GlcNAc(b1-6)]GalNAc
# In short: as §1
# [4] = target: Neu5Ac(a2-6)Gal(b1-4)GlcNAc(b1-3)Gal(b1-4)GlcNAc(b1-6)[Gal(b1-3)]GalNAc
# In short: as §1
# [5] = target: Neu5Ac(a2-6)Gal(b1-4)GlcNAc(b1-3)Gal(b1-4)[Fuc(a1-3)]GlcNAc(b1-3)Gal(b1-4)[Fuc(a1-3)]GlcNAc
# In short: as §1
# [6] = target: Neu5Ac(a2-6)Gal(b1-4)GlcNAc(b1-3)GalNAc
# In short: as §1
# [7] = target: Neu5Ac(a2-6)Gal(b1-4)GlcNAc(b1-3)[Neu5Ac(a2-6)Gal(b1-4)GlcNAc(b1-6)]GalNAc
# In short: as §1
# [8] = target: Neu5Ac(a2-6)Gal(b1-4)GlcNAc(b1-6)GalNAc
# In short: as §1
# [9] = target: Neu5Ac(a2-6)Gal(b1-4)GlcNAc(b1-6)[Gal(b1-3)GlcNAc(b1-3)]Gal(b1-4)Glc
# In short: as §1
# [10] = target: Neu5Ac(a2-6)Gal(b1-4)GlcNAc(b1-6)[Gal(b1-3)]GalNAc
# In short: as §1
# [11] = target: Neu5Ac(a2-6)Gal(b1-4)GlcNAc6S
# In short: as §1
# Neu5Ac(a2-6)GalNAc = target: Neu5Ac(a2-6)GalNAc
# In short: as §1
# [12] = target: Neu5Ac(a2-6)GalNAc(b1-4)GlcNAc
# In short: as §1
# [13] = target: Neu5Ac(a2-6)GalNAc(b1-4)GlcNAc6S
# In short: as §1
# [14] = target: Neu5Ac(a2-6)GlcNAc(b1-4)GlcNAc
# In short: as §1
# [15] = target: Neu5Ac(a2-6)GlcNAc(b1-4)GlcNAc(b1-4)GlcNAc
# In short: as §1
# Neu5Ac(a2-8)Neu5Ac = target: Neu5Ac(a2-8)Neu5Ac
# In short: as §1
# [16] = target: Neu5Ac(a2-8)Neu5Ac(a2-3)Gal(b1-3)GalNAc(b1-4)[Neu5Ac(a2-3)]Gal(b1-4)Glc
# In short: as §1
# [17] = target: Neu5Ac(a2-8)Neu5Ac(a2-3)Gal(b1-3)GalNAc(b1-4)[Neu5Ac(a2-8)Neu5Ac(a2-3)]Gal(b1-4)Glc
# In short: as §1
# [18] = target: Neu5Ac(a2-8)Neu5Ac(a2-3)Gal(b1-4)Glc
# In short: as §1
# [19] = target: Neu5Ac(a2-8)Neu5Ac(a2-3)Gal(b1-4)GlcNAc
# In short: as §1
# [20] = target: Neu5Ac(a2-8)Neu5Ac(a2-3)[Gal(b1-3)GalNAc(b1-4)]Gal(b1-4)Glc
# In short: as §1
# [21] = target: Neu5Ac(a2-8)Neu5Ac(a2-3)[GalNAc(b1-4)]Gal(b1-4)Glc
# In short: as §1
# [22] = target: Neu5Ac(a2-8)Neu5Ac(a2-8)Neu5Ac
# In short: as §1
# [23] = target: Neu5Ac(a2-8)Neu5Ac(a2-8)Neu5Ac(a2-3)Gal(b1-4)Glc
# In short: as §1
# [24] = target: Neu5Ac(a2-8)Neu5Ac(a2-8)Neu5Ac(a2-3)[Gal(b1-3)GalNAc(b1-4)]Gal(b1-4)Glc
# In short: as §1
# [25] = target: Neu5Ac(a2-8)Neu5Ac(a2-8)Neu5Ac(a2-3)[GalNAc(b1-4)]Gal(b1-4)Glc
# In short: as §1
# [26] = target: Neu5Ac(a2-8)Neu5Ac(a2-8)Neu5Ac(a2-8)Neu5Ac(a2-3)[GalNAc(b1-4)]Gal(b1-4)Glc
# In short: as §1
# [27] = target: Neu5Ac(a2-8)Neu5Gc(a2-3)Gal(b1-4)GlcNAc
# In short: as §1
# [28] = target: Neu5Ac(b2-6)Gal(b1-4)GlcNAc
# In short: as §1
# Neu5Ac(b2-6)GalNAc = target: Neu5Ac(b2-6)GalNAc
# In short: as §1
# [29] = target: Neu5Ac9Ac(a2-3)Gal(b1-3)GlcNAc
# In short: as §1
# [30] = target: Neu5Ac9Ac(a2-3)Gal(b1-4)GlcNAc
# In short: as §1
# [31] = target: Neu5Ac9Ac(a2-6)Gal(b1-4)GlcNAc
# In short: as §1
# [32] = target: Neu5Gc(a2-3)Gal(b1-3)GlcNAc
# In short: as §1
# [33] = target: Neu5Gc(a2-3)Gal(b1-3)[Fuc(a1-4)]GlcNAc
# In short: as §1
# Neu5Gc(a2-3)Gal(b1-4)Glc = target: Neu5Gc(a2-3)Gal(b1-4)Glc
# In short: as §1
# [34] = target: Neu5Gc(a2-3)Gal(b1-4)GlcNAc
# In short: as §1
# [35] = target: Neu5Gc(a2-3)Gal(b1-4)GlcNAc(b1-3)Gal(b1-4)GlcNAc(b1-2)Man(a1-3)[Neu5Gc(a2-3)Gal(b1-4)GlcNAc(b1-3)Gal(b1-4)GlcNAc(b1-2)Man(a1-6)]Man(b1-4)GlcNAc(b1-4)GlcNAc
# In short: as §1
# [36] = target: Neu5Gc(a2-3)Gal(b1-4)[Fuc(a1-3)]GlcNAc
# In short: as §1
# [37] = target: Neu5Gc(a2-6)Gal(b1-4)GlcNAc
# In short: as §1
# Neu5Gc(a2-6)GalNAc = target: Neu5Gc(a2-6)GalNAc
# In short: as §1
# [38] = target: Neu5Gc(a2-8)Neu5Ac(a2-3)Gal(b1-4)GlcNAc
# In short: as §1
# [39] = target: Neu5Gc(a2-8)Neu5Gc(a2-3)Gal(b1-4)GlcNAc
# In short: as §1
# [40] = target: Neu5Gc(a2-8)Neu5Gc(a2-3)Gal(b1-4)GlcNAc(b1-3)Gal(b1-4)GlcNAc
# In short: as §1
binder,measurement,setting,value
EULS2 M2 (Oryza sativa) (protein) MVYCRANPNYAMTARNGAVVLAPANPKDEYQHWIKDMRWSTSIKDEEGYPAFALVNKATGQAIKHSLGQSHPVRLVPYNPEVMDESVLWTESRDVGNGFRCIRMVNNIYLNFDAFHGDKYHGGVRDGTDIVLWKLCEGDSQRWKIQPYYILEQKLISEEDLNSAVDHHHHHH,glycan array binding signal (z-score),[1],0.058
same,glycan array binding signal (z-score),[2],-0.499
same,glycan array binding signal (z-score),[3],-0.159
same,glycan array binding signal (z-score),[4],-0.768
same,glycan array binding signal (z-score),[5],-0.268
same,glycan array binding signal (z-score),[6],-0.138
same,glycan array binding signal (z-score),[7],-0.912
same,glycan array binding signal (z-score),[8],0.33
same,glycan array binding signal (z-score),[9],0.297
same,glycan array binding signal (z-score),[10],0.479
same,glycan array binding signal (z-score),[11],-0.389
same,glycan array binding signal (z-score),Neu5Ac(a2-6)GalNAc,-0.587
same,glycan array binding signal (z-score),[12],-0.44
same,glycan array binding signal (z-score),[13],-0.373
same,glycan array binding signal (z-score),[14],0.093
same,glycan array binding signal (z-score),[15],-0.697
same,glycan array binding signal (z-score),Neu5Ac(a2-8)Neu5Ac,-0.363
same,glycan array binding signal (z-score),[16],-0.748
same,glycan array binding signal (z-score),[17],-0.295
same,glycan array binding signal (z-score),[18],-0.496
same,glycan array binding signal (z-score),[19],-0.336
same,glycan array binding signal (z-score),[20],-0.202
same,glycan array binding signal (z-score),[21],-0.465
same,glycan array binding signal (z-score),[22],-0.125
same,glycan array binding signal (z-score),[23],-0.085
same,glycan array binding signal (z-score),[24],0.078
same,glycan array binding signal (z-score),[25],-0.523
same,glycan array binding signal (z-score),[26],-0.212
same,glycan array binding signal (z-score),[27],-0.865
same,glycan array binding signal (z-score),[28],-0.38
same,glycan array binding signal (z-score),Neu5Ac(b2-6)GalNAc,-0.415
same,glycan array binding signal (z-score),[29],0.409
same,glycan array binding signal (z-score),[30],-0.37
same,glycan array binding signal (z-score),[31],-0.559
same,glycan array binding signal (z-score),[32],-0.348
same,glycan array binding signal (z-score),[33],-0.376
same,glycan array binding signal (z-score),Neu5Gc(a2-3)Gal(b1-4)Glc,0.111
same,glycan array binding signal (z-score),[34],0.191
same,glycan array binding signal (z-score),[35],0.09
same,glycan array binding signal (z-score),[36],-0.551
same,glycan array binding signal (z-score),[37],-0.401
same,glycan array binding signal (z-score),Neu5Gc(a2-6)GalNAc,0.154
same,glycan array binding signal (z-score),[38],-0.437
same,glycan array binding signal (z-score),[39],-0.425
same,glycan array binding signal (z-score),[40],-0.188
